# In PubChem BioAssay (Tox21):
# Several values for one entry are separate records, joined by “and”; a condition that tells them apart may be missing. Equal entries are not always repeated. This list was built around the results that the source calls inconclusive (neither active nor inactive); the mix of calls is not that of the screen. Where the call is inconclusive, the potency comes from a doubtful curve fit. Activity calls are given as the source filed them. Calls come from the whole dose curve; as a rule, active = well fitted cell-killing curve with a large enough effect in the repeat runs; inconclusive = weak or mixed curves; inactive = flat fitted curve, though single readings scatter.
# Test: qHTS assay to identify small molecule antagonists of the estrogen related receptor (ERR) signaling pathway from Tox21 library - cell viability counter screen (AID 1224834); note: nearly all actives have a fitted effect of over 30% in size
# Settings: ERR reporter cells viability, CellTiter-Fluor, 17.5 h; series mostly up to 92.4 µM
# In short: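 Compounds in DMSO were pinned onto ERR cells that had been incubated for 6 h, and the plates were held at 37 C for 17.5 h. CellTiter-Fluor reagent was then added and fluorescence was measured after 30 min.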
# Potency is the fitted concentration of half-maximal effect; tags give direction and shape of the fitted curve.
row,Compound,Potency
1,Cn1sccc1=O,"inconclusive: 77 µM [cytotoxic, single point]"
2,CCCc1nc2c(C)cc(-c3nc4ccccc4n3C)cc2n1Cc1ccc(-c2ccccc2C(=O)O)cc1,"inconclusive: 26.6 µM [cytotoxic, partial curve]"
3,C=C(C)C(=O)OCCC(F)(F)C(F)(F)C(F)(F)C(F)(F)C(F)(F)C(F)(F)F,inactive
4,CCOc1cccc(-n2cc(C(=O)N3CCN(c4cc(C(=O)O)c5ccccc5c4)CC3)nc2-c2ccc(C)cc2)c1,inconclusive: 65.5 µM [cytotoxic]
5,Oc1cc(Cl)cc(Cl)c1Cl,"inconclusive: 70.3 µM [cytotoxic, single point]"
6,CC(C)(C)c1csc(-c2cc3cc(OCc4ccccc4CC(=O)O)ccc3o2)n1,"inconclusive: 38.6 µM [cytotoxic, partial curve]"
7,CCN(CC)c1ccc2c(-c3ccccc3C(=O)O)c3ccc(=[N+](CC)CC)cc-3oc2c1,active: 7.7 µM
8,CCCCOC(=O)c1ccc(O)cc1,"inconclusive: 69.4 µM [cytotoxic, partial curve] and inconclusive: 61.1 µM [cytotoxic, partial curve]"
9,O=C(O)c1ccccc1,"inconclusive: 57.2 µM [cytotoxic, partial curve]"
10,Oc1c(Cl)cc(Cl)c(Cl)c1Cl,"inconclusive: 75.3 µM [cytotoxic, partial curve, poor fit]"
11,CO[C@H]1C=CO[C@@]2(C)Oc3c(C)c(O)c4c(O)c(c5c(c4c3C2=O)=NC2(CCN(CC(C)C)CC2)N=5)NC(=O)/C(C)=C\C=C/[C@H](C)[C@H](O)[C@@H](C)[C@@H](O)[C@@H](C)[C@H](OC(C)=O)[C@@H]1C,active: 47.5 µM
